This list was built around the results that the source calls inconclusive (neither active nor inactive); the mix of calls is not that of the screen. For some of these results: Potencies of inconclusive entries are doubtful fits and often do not repeat. Active and inactive are the calls of the source. Unless noted, calls come from the whole dose curve; as a rule, active = well fitted curve in the direction sought with a large enough effect in the repeat runs; inconclusive = weak or mixed curves; inactive = no such curve, though single readings can be large; an effect the other way counts as inactive or inconclusive.
Key:
[1] = qHTS assay to identify small molecule antagonists of the peroxisome proliferator-activated receptor gamma (PPARg) signaling pathway - cell viability counter screen (AID 743194); conditions: PPARg-bla HEK293H viability, CellTiter-Glo luminescence, 17 h, co-treated with 50 nM rosiglitazone; activity change, negative = cytotoxicity: at 62.6 µM (top of the series) unless noted; note: nearly all actives have a fitted effect of over 55% in size; note: potency is the fitted concentration of half-maximal effect; for activity change, negative = cytotoxicity: % is set by controls: 0 for no effect and ±100 for the full control effect
How it was run: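 Viability was measured as CellTiter-Glo luminescence in GeneBLAzer PPARg UAS-bla HEK293H cells. These cells had been exposed 17 h at 37 C to compounds together with rosiglitazone at 50 nM final, with the beta-lactamase readout taken in the same wells.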

[2] = target: Bile acid receptor (Homo sapiens) (UniProt Q96RI1); assay: qHTS assay to identify small molecule antagonists of the farnesoid-X-receptor (FXR) signaling pathway (AID 743217; active = well fitted inhibition curve with a large enough effect in the signal ratio in the repeat runs, not every such curve was filed as active; inconclusive = weak or mixed curves, or effect the other way; inactive = no such curve, though single readings can be large or run the other way; the % refers to the signal ratio; note: % is set by controls: 0 for no effect and ±100 for the full control effect); conditions: HEK293T FXR-UAS-bla, beta-lactamase ratio, CDCA-stimulated, 16 h; activity change, negative = inhibition: at 62.6 µM (top of the series) unless noted
How it was run: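 In this cell-based antagonist screen, inhibition of CDCA-driven (50 uM final) UAS-beta-lactamase expression in HEK 293T cells was measured by FRET fluorescence following 16 h compound exposure at 37 °C.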

[3] = target: Estrogen receptor (Homo sapiens) (UniProt P03372); assay: qHTS assay to identify small molecule agonists of the estrogen receptor alpha (ER-alpha) signaling pathway using the BG1 cell line (AID 743079); conditions: BG1Luc4E2 cells, ERE-luciferase agonist, 22 h; activation: at 70.3 µM (top of the series) unless noted; note: nearly all actives have a fitted effect of over 20% in size; note: potency is the fitted concentration of half-maximal effect
[4] = target: Estrogen receptor (Homo sapiens) (UniProt P03372); assay: qHTS assay to identify small molecule antagonists of the estrogen receptor alpha (ER-alpha) signaling pathway (AID 743069; active = well fitted curve in the direction sought with a large enough effect in the signal ratio in the repeat runs, not every such curve was filed as active; inconclusive = weak or mixed curves, or effect the other way; inactive = no such curve, though single readings can be large or run the other way; the % refers to the signal ratio; note: potency is the fitted concentration of half-maximal effect); conditions: HEK293 ER-alpha-UAS-bla, beta-lactamase ratio, antagonist mode; activity, negative = inhibition: at 69.4 µM (top of the series) unless noted
How it was run: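 Compound effects are measured against 17beta-estradiol stimulation in HEK293 cells with a UAS-controlled beta-lactamase reporter for ER-alpha. Exposure lasts 18 hr at 37C; LiveBLAzer B/G FRET substrate follows for 2 hr at room temperature.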

[5] = target: Nuclear receptor subfamily 1 group I member 3 (Homo sapiens) (UniProt Q14994); assay: qHTS assay to identify small molecule agonists of the constitutive androstane receptor (CAR) signaling pathway (AID 1224839);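 note: HepG2 cells stably carrying human CAR and a CYP2B6 luciferase reporter; % is set by controls: 0 for no effect and ±100 for the full control effect; nearly all actives have a fitted effect of over 15% in size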
How it was run: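 Double-stable HepG2 cells (hCAR, CYP2B6-2.2kb) seeded 4 h before compound addition. Exposure 24 h with 0.75 uM PK11195 final. Luciferase detected by ONE-Glo.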

[6] = target: Thyrotropin receptor (Homo sapiens) (UniProt P16473); assay: qHTS assay to identify small molecule agonists of the thyroid stimulating hormone receptor (TSHR) signaling pathway (AID 1224843; calls by dose curve; note: % is set by controls: 0 for no effect and ±100 for the full control effect; nearly all actives have a fitted effect of over 45% in size); conditions: TSHR-HEK293 cells, cAMP HTRF, agonist mode, 30 min; activation: at 92.4 µM (top of the series) unless noted
How it was run: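 HEK293 cells stably bearing the thyrotropin receptor were plated at 800 cells/well and challenged with compound (30 min, RT). Accumulated cAMP was quantified via cAMP-d2 competing for cryptate-tagged antibody.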

[7] = qHTS assay to identify small molecule agonists of H2AX (AID 1224845; active = well fitted activation curve with a large enough effect in the signal ratio in the repeat runs, not every such curve was filed as active; inconclusive = weak or mixed curves; the % refers to the signal ratio; note: % is set by controls: 0 for no effect and ±100 for the full control effect); conditions: CHO-K1 phospho-H2AX Ser139 HTRF, 3 h; activation (H2AX phosphorylation): at 154 µM (top of the series) unless noted
How it was run: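 Phospho-H2AX Ser139 measured by HTRF (ex 320 nm; em 665 and 620 nm) after 24 hr antibody incubation. Compounds, 15 concentrations, 0.76% DMSO, were applied to CHO-K1 cells for 3hr at 37C before lysis.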

[8] = target: Peroxisome proliferator-activated receptor delta (Homo sapiens) (UniProt Q03181); assay: qHTS assay to identify small molecule agonists of the peroxisome proliferator-activated receptor delta (PPARd) signaling pathway (AID 743212; calls by dose curve; note: potency is the fitted concentration of half-maximal effect); conditions: HEK293H PPARd-UAS-bla, beta-lactamase FRET ratio, 17 h; activation: at 62.6 µM (top of the series) unless noted
How it was run: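 HEK293H UAS-bla reporter cells, human PPARd system; compounds delivered in DMSO after 5 h plating, then at 37 C. Beta-lactamase FRET read, 2 h RT substrate step.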

[9] = qHTS assay to identify small molecule antagonists of the TGF-beta/Smad signaling pathway (AID 1346924; active = well fitted inhibition curve with a large enough effect in the signal ratio in the repeat runs, not every such curve was filed as active; inconclusive = weak or mixed curves; the % refers to the signal ratio; note: potency is the fitted concentration of half-maximal effect); conditions: SBE-bla HEK293T, TGF-beta/Smad reporter, beta-lactamase ratio; activity, negative = inhibition: at 76.8 µM (top of the series) unless noted
How it was run: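 SBE-bla HEK 293T cells were plated overnight, then received compound in DMSO plus TGF-beta1 (added as a 0.25 ng/mL solution) and were incubated 5 h at 37 C. Beta-lactamase reporter activity was read after 2 h at room temperature with LiveBLAzer B/G FRET substrate (ex 405, em 460/530 nm).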

[10] = qHTS RealTime-Glo MT Cell Viability Assay in HEK293 cells - 32 hour (AID 1224868); note: potency is the fitted concentration of half-maximal effect; nearly all actives have a fitted effect of over 50% in size
How it was run: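 HEK293 cells seeded with NanoLuc/prosubstrate reagent, rested 5 h at 37 C, then dosed and kept at 37 C up to 40 h. Nonlytic real-time luminescence from viable cells read at 0, 8, 16, 24, 32 and 40 h.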

[11] = target: Thyrotropin receptor (Homo sapiens) (UniProt P16473); assay: qHTS assay to identify small molecule antagonists of the thyroid stimulating hormone receptor (TSHR) signaling pathway (AID 1259385; calls by dose curve; note: nearly all actives have a fitted effect of over 20% in size; note: potency is the fitted concentration of half-maximal effect); conditions: TSHR-HEK293 cAMP HTRF, TSH-stimulated antagonist mode; activity change, negative = inhibition: at 92.4 µM (top of the series) unless noted
How it was run: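 Antagonist mode: compound-treated TSHR-expressing HEK293 cells were stimulated with 1.5 ng/mL TSH (final) in presence of Ro20-1724 for 30 min at RT. HTRF cAMP detection after 1 h; each compound tested at 15 concentrations, triplicate.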

[12] = Human pregnane X receptor (PXR) small molecule agonists, qHTS cell viability counter screen (AID 1346977); note: % is set by controls: 0 for no effect and ±100 for the full control effect; nearly all actives have a fitted effect of over 50% in size
How it was run: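 Tox21 qHTS format; PXR-Luc HepG2, 2,000/well, charcoal-stripped FBS 5%. Cpd exposure 24hr. Read: CellTiter-Fluor fluorescence, multiplexed with luciferase.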

[13] = qHTS assay to identify small molecule agonists of the peroxisome proliferator-activated receptor delta (PPARd) signaling pathway - cell viability counter screen (AID 743211); conditions: PPARd-bla HEK293H viability, CellTiter-Glo luminescence, 17 h; activity change, negative = cytotoxicity: at 62.6 µM (top of the series) unless noted; note: potency is the fitted concentration of half-maximal effect; nearly all actives have a fitted effect of over 55% in size
How it was run: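 qHTS cell viability: PPARd-bla HEK293H; 17 h cpd, 37C; CellTiter-Glo, luminescence at 30 min RT.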

[14] = target: Progesterone receptor (Homo sapiens) (UniProt P06401); assay: qHTS assay to identify small molecule agonists of the progesterone receptor (PR) signaling pathway (AID 1346784; calls by dose curve; note: nearly all actives have a fitted effect of over 30% in size; note: potency is the fitted concentration of half-maximal effect); conditions: PR-UAS-bla HEK293T, beta-lactamase FRET ratio, 16 h; activation: at 92.4 µM (top of the series) unless noted
How it was run: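 Compounds were tested for PR agonism in HEK 293T cells bearing a beta-lactamase gene under UAS control. Treatment lasted 16 hr at 37C; signal came from fluorescence of a FRET substrate.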

[15] = target: Peroxisome proliferator-activated receptor gamma (Homo sapiens) (UniProt P37231); assay: qHTS assay to identify small molecule agonists of the peroxisome proliferator-activated receptor gamma (PPARg) signaling pathway (AID 743094; active = well fitted activation curve with a large enough effect in the signal ratio in the repeat runs, not every such curve was filed as active; inconclusive = weak or mixed curves, or effect the other way; inactive = no such curve, though single readings can be large or run the other way; the % refers to the signal ratio; note: % is set by controls: 0 for no effect and ±100 for the full control effect); conditions: HEK293H PPARg-UAS-bla, beta-lactamase FRET ratio, 17 h; activation: at 57 µM (top of the series) unless noted
How it was run: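 Following 5 h plating at 37C, PPARg-bla HEK293H cells receive compound or DMSO for 17 h; fluorescence intensity is recorded after LiveBLAzer B/G loading for 1 h at room temperature.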

[16] = qHTS assay to identify small molecule agonists of the TGF-beta/Smad signaling pathway (AID 1346859; active = well fitted activation curve with a large enough effect in the signal ratio in the repeat runs, not every such curve was filed as active; inconclusive = weak or mixed curves; the % refers to the signal ratio; note: potency is the fitted concentration of half-maximal effect)
How it was run: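 Each well held 4,000 SBE-bla HEK 293T cells incubated overnight before compound addition; 5 hr later the cleavable FRET substrate went on for 2 hr at room temperature, and fluorescence was read at two emissions.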

[17] = target: Voltage-gated inwardly rectifying potassium channel KCNH2 (Homo sapiens) (UniProt Q12809); assay: Human Ether-a-go-go-Related Gene (hERG) channel small molecule antagonists: fluorescence cell-based qHTS assay (AID 1671200); note: potency is the fitted concentration of half-maximal effect; nearly all actives have a fitted effect of over 50% in size
How it was run: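 Kinetic two-minute fluorescence traces, sampled at 1 s, were collected following thallium stimulus of U2OS cells (1000 per well) that had been cultured overnight at 37 C and loaded with FluxOR II.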

[18] = target: Cytochrome P450 3A4 (Homo sapiens) (UniProt P08684); assay: Cytochrome P450 Family 3 Subfamily A Member 4 (CYP3A4) small molecule antagonists: luciferase reporter qHTS assay (AID 1671201); note: potency is the fitted concentration of half-maximal effect; nearly all actives have a fitted effect of over 50% in size
How it was run: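 Proluciferin-to-luciferin conversion by CYP3A4, NADPH-regenerated, 1 h RT; luminescence read as RLU. Ketoconazole as control.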

[19] = target: Peroxisome proliferator-activated receptor delta (Homo sapiens) (UniProt Q03181); assay: qHTS assay to identify small molecule antagonists of the peroxisome proliferator-activated receptor delta (PPARd) signaling pathway (AID 743215; active = well fitted inhibition curve with a large enough effect in the signal ratio in the repeat runs, not every such curve was filed as active; inconclusive = weak or mixed curves, or effect the other way; inactive = no such curve, though single readings can be large or run the other way; the % refers to the signal ratio;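 note: cells stimulated with agonist L165041 at 300 nM final during compound exposure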; note: potency is the fitted concentration of half-maximal effect); conditions: HEK293H PPARd-UAS-bla, beta-lactamase FRET ratio, antagonist, 17 h; ratio activity, negative = inhibition: at 62 µM (top of the series) unless noted
How it was run: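 With L165041 present at 300 nM final, compounds were incubated 17 h at 37 C on PPARd UAS-bla HEK293H cells. A FRET-based beta-lactamase substrate was then applied for 2 h at room temperature and fluorescence intensity recorded.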

[20] = qHTS assay to identify small molecule agonists of the vitamin D receptor (VDR) signaling pathway - cell viability counter screen (AID 743224)
How it was run: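 Here cell health was gauged by luminescent ATP detection (CellTiter-Glo, 30 min RT) in VDR-bla cells that had been incubated with test compounds for 16 h at 37C and 5% CO2.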
Tags give direction and shape of the fitted curve or compound fluorescence and quenching.

Chain of UniProt P08684 (P08684 whole entry, looked up): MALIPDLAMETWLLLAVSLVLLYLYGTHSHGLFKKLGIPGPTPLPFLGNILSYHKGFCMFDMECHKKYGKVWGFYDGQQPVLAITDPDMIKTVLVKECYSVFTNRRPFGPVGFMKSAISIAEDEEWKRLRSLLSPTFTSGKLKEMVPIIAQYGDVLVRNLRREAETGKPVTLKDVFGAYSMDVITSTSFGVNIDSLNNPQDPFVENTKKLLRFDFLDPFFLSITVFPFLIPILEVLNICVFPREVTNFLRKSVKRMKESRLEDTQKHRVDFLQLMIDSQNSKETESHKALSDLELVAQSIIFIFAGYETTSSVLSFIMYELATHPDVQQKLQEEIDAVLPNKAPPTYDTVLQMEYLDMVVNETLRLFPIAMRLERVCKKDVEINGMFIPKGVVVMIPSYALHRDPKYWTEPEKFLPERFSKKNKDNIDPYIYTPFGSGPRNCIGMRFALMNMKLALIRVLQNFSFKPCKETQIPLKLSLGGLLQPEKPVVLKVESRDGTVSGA
Chain of UniProt P03372 (P03372 whole entry, looked up): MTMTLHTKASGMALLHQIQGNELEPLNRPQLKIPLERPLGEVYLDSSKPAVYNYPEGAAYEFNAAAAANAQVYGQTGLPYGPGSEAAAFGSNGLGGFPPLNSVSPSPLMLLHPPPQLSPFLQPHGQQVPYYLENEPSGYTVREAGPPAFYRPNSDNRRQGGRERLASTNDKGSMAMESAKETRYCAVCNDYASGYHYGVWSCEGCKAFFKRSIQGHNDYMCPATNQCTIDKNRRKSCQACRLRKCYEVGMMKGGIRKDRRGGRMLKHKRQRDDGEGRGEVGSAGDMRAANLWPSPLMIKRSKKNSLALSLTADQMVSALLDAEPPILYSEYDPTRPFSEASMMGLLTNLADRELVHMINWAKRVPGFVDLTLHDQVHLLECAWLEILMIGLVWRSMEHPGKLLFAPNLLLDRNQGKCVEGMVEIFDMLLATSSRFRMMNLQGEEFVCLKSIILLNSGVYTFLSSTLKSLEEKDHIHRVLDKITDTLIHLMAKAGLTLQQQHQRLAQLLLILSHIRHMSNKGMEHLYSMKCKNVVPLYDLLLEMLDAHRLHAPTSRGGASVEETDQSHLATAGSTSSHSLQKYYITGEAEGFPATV
Chain of UniProt Q14994 (Q14994 whole entry, looked up): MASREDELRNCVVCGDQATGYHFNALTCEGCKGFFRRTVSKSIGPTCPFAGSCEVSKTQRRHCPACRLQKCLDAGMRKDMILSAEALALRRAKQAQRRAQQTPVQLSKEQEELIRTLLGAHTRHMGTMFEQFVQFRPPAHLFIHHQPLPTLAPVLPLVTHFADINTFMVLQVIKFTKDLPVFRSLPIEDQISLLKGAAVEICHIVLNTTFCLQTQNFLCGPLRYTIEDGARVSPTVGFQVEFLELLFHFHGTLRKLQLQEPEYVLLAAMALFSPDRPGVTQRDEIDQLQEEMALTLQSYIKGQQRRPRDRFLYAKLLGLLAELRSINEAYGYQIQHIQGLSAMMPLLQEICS
Chain of UniProt Q96RI1 (Q96RI1 whole entry, looked up): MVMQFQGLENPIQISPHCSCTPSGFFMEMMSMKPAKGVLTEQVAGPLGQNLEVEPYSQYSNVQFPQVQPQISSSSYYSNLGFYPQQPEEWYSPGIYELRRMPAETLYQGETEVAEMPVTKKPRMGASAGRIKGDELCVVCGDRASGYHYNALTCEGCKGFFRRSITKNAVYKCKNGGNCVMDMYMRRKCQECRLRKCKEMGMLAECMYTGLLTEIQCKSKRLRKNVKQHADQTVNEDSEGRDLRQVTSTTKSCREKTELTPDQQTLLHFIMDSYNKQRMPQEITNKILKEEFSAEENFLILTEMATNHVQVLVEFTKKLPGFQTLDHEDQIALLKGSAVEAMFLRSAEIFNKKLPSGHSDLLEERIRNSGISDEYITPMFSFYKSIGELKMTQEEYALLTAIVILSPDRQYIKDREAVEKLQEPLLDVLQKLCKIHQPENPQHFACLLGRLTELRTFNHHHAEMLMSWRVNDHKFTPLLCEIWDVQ
Chain of UniProt P16473 (P16473 whole entry, looked up): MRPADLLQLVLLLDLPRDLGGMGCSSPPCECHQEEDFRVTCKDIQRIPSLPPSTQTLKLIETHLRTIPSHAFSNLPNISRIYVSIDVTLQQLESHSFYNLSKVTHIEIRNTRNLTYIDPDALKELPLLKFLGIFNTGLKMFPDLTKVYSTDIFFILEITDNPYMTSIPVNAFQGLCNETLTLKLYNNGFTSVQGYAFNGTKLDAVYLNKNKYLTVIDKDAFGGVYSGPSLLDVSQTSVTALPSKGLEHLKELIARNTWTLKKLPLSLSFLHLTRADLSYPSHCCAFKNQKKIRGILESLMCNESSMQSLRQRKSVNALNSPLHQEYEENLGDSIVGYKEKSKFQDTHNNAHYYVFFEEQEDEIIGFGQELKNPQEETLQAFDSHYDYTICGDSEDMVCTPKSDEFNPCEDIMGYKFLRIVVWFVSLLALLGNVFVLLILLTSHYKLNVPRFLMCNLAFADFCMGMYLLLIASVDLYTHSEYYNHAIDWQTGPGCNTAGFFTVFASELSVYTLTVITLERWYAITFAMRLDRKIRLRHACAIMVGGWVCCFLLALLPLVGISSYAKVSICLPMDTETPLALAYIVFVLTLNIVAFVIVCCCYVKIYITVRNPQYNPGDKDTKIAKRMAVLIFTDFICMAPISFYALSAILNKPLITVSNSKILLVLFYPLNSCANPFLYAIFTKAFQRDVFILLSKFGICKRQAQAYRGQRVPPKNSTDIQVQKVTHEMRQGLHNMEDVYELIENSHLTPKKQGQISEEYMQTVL
Chain of UniProt P37231 (P37231 whole entry, looked up): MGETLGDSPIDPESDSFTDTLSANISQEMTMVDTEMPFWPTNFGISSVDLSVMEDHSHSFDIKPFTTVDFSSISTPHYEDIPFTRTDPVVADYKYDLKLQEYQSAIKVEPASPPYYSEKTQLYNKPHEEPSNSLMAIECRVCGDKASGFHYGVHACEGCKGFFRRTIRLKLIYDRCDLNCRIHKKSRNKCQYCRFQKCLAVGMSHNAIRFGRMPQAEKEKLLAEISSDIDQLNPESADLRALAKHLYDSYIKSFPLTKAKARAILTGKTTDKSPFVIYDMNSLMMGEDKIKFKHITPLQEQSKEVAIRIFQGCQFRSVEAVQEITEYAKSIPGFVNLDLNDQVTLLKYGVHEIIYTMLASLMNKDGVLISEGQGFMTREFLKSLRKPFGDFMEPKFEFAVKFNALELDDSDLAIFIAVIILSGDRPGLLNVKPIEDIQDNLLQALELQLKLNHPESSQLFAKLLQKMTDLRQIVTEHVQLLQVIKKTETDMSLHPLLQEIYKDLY
Chain of UniProt Q03181 (Q03181 whole entry, looked up): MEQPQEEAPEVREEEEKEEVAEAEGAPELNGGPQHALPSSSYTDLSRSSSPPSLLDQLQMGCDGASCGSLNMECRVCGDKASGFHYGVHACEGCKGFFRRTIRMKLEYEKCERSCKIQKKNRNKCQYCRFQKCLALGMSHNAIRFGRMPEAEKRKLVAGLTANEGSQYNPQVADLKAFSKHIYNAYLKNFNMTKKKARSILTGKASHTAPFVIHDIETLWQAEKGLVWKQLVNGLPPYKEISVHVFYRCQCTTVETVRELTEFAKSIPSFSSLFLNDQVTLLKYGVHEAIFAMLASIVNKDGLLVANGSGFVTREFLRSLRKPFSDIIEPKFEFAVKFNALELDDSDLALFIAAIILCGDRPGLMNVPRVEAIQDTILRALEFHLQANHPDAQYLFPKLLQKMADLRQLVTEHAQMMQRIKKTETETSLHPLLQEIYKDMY
Chain of UniProt P06401 (P06401 whole entry, looked up): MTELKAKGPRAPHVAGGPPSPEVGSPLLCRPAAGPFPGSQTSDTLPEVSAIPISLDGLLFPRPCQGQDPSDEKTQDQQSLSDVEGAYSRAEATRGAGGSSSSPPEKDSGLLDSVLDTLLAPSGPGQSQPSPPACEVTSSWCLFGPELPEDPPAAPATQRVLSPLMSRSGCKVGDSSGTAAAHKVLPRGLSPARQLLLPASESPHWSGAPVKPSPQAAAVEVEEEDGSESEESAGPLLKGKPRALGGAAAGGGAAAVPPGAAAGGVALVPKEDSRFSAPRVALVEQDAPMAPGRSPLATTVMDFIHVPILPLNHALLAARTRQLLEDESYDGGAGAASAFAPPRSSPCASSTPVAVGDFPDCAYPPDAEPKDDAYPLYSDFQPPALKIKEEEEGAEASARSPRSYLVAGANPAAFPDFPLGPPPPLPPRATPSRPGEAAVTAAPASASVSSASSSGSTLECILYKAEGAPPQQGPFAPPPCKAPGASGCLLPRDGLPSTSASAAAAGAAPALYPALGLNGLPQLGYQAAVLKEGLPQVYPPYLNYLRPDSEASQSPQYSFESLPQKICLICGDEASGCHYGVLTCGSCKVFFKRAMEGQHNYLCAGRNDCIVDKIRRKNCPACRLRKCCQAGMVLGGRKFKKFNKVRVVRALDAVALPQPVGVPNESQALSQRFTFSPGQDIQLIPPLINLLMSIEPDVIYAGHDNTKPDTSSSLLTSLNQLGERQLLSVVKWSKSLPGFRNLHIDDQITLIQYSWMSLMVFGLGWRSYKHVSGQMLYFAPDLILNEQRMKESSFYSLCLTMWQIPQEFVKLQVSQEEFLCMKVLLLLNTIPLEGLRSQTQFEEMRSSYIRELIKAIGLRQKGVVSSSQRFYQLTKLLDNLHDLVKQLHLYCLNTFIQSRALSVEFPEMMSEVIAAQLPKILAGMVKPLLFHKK

## CC(=O)OC(C)(C)Cc1ccccc1
[1]
  Potency: inactive
[2]
  Potency: inactive

## CCOC(=O)OC(C)OC1=C(C(=O)Nc2ccccn2)N(C)S(=O)(=O)c2ccccc21 (stereo unspecified)
[3]
  activation: inconclusive: 25.9% [phenotype inactive]

## CC(=O)CC(=O)OC(C)(C)C
[4]
  Potency: inactive
[3]
  Potency: inconclusive: 77 nM [activator, full curve, poor fit]
[5]
  Potency: inactive
[6]
  Potency: inactive
[7]
  Potency: inactive

## O=C(O)CC(O)C(=O)O (stereo unspecified)
[1]
  Potency: inactive
[6]
  Potency: inactive

## BrCCCCCBr
[3]
  Potency: inactive
[7]
  Potency: inactive

## O=C(CCCCCCC(=O)Nc1ccccc1)NO
[4]
  Potency: inconclusive: 10.7 µM [cytotoxic]
  activity, negative = inhibition: inconclusive: 37.7%
[3]
  Potency: inconclusive: 2660 nM [inhibitor, full curve]
[1]
  Potency: inconclusive: 10.6 µM [cytotoxic, partial curve, poor fit]
[8]
  Potency: inactive
[9]
  activity, negative = inhibition: inconclusive: 0.977% [at 35.3 µM]

## C=C1CC[C@H]2O[C@]2(C)CC[C@@H]2[C@@H]1CC2(C)C
[5]
  Potency: inactive
[10]
  Potency: inconclusive: 54.9 µM [cytotoxic, single point]
[11]
  Potency: inactive
[12]
  Potency: inactive

## CC1(C)C2=CCCC(C)(C)[C@]23CC[C@H]1C3
[13]
  Potency: inconclusive: 43.6 µM [cytotoxic, single point]
[6]
  activation: inconclusive: 36.1%
[14]
  activation: inconclusive: 7.47%

## N=C(N=C(N)N)N1CCOCC1
[9]
  activity, negative = inhibition: inconclusive: -1.38% [at 35.3 µM]

## O=C(O)/C=C/c1ccc(Cn2ccnc2)cc1
[15]
  Potency: inactive
[2]
  Potency: inactive
[7]
  Potency: inactive

## COC(=O)CSc1cc(N=c2sc(=O)n3n2CCCC3)c(F)cc1Cl
[16]
  Potency: inconclusive: 43.6 µM [rising, partial curve]
[9]
  Potency: inconclusive: 54.9 µM [fluorescent]
[17]
  Potency: inconclusive: 38.9 µM [inhibitor, partial curve]
[18]
  Potency: inconclusive: 12.6 µM [inhibitor, full curve]

## Oc1ccccc1F
[1]
  Potency: inactive
[2]
  Potency: inactive
[12]
  Potency: inactive

## CCC(=O)c1cccc(Cl)c1
[19]
  Potency: inactive
[14]
  Potency: active: 1.97 µM

## COc1ccc2c(c1)c(CC(=O)OCC(=O)O)c(C)n2C(=O)c1ccc(Cl)cc1
[8]
  Potency: inconclusive: 13.3 µM [partial curve]
[19]
  Potency: inconclusive: 0.211 µM [fluorescent, partial curve, poor fit]
[16]
  Potency: inconclusive: 21.3 µM [rising, partial curve]
[9]
  activity, negative = inhibition: inconclusive: -3.22% [at 35.3 µM]

## CCCOC(=O)CC
[5]
  Potency: inactive

## NC(=O)Cc1cccc2ccccc12
[14]
  Potency: inactive

## NCCNCCN
[17]
  Potency: inconclusive: 49.1 µM [inhibitor, partial curve]
[18]
  Potency: inconclusive: 79.9 µM [inhibitor, single point]

## CCCCCCCCCCCCC1CO1 (stereo unspecified)
[3]
  Potency: inactive
[2]
  Potency: inactive
[14]
  Potency: inconclusive: 4.86 µM [falling, full curve]
[9]
  activity, negative = inhibition: inconclusive: -1.95%
[12]
  Potency: inactive

## CC(=O)OC1CC(C)OC(C)O1 (stereo unspecified)
[1]
  Potency: inconclusive: 60.8 µM [cytotoxic, single point]

## CCCCC(CC)COC(=O)COc1ccc(Cl)cc1C (stereo unspecified)
[19]
  Potency: inconclusive: 54.9 µM [fluorescent, partial curve, poor fit]
[2]
  activity change, negative = inhibition: inconclusive: -7.95%
[11]
  Potency: inconclusive: 68.6 µM [falling, partial curve, poor fit]
[18]
  Potency: active: 8.94 µM

## C1C2OC2C2C1C1CC2C2OC12 (stereo unspecified)
[13]
  Potency: inconclusive: 22 µM [rising, single point]

## CC(=O)CCC=C(C)C
[4]
  Potency: inactive
[15]
  Potency: inactive
[19]
  Potency: inactive
[20]
  Potency: inactive

From PubChem BioAssay (Tox21)
